# Source: patent US20040197222A1 (priority 2002, published 2004)
# Experiments:
# [1] = test system: 10^6 spores of B. subtilis var. niger ATCC # 9372; type: cell-based, Bacillus subtilis var. niger
# [2] = test system: 10^5 of B. stearothermophilus ATCC # 7953; experiment: Trailer field fumigation, combined-species spore strips incubated for B. stearothermophilus; type: cell-based, Bacillus stearothermophilus; conditions: 303.7 oz/1,000 ft^3, 48 hours
# [3] = test system: B. subtilis var. niger strips containing 10^8 spores; type: cell-based, Bacillus subtilis var. niger
compound,measurement,setting,value
CBr [methyl bromide],incubation result 10^6 B. sub.,[1],pass
same,incubation result 10^5 B. stear.,"[2]; trailer loc. 3-Behind wall paneling in insulation, mean 95.12 °F",pass
same,incubation result 10^5 B. stear.,"[2]; trailer loc. 6-Closed kitchen cabinet, […]",pass
same,incubation result 10^5 B. stear.,"[2]; trailer loc. 7-PC keyboard, inside back cover, […]",pass
same,incubation result 10^5 B. stear.,"[2]; trailer loc. 8-PC CD tray, closed, […]",pass
same,incubation result 10^5 B. stear.,"[2]; trailer loc. 9-Desk drawer, closed, […]",pass
same,incubation result 10^5 B. stear.,"[2]; trailer loc. 10-Desk drawer, in closed hanging file, […]",pass
same,incubation result 10^5 B. stear.,"[2]; trailer loc. 11-Ceiling surface, exposed, […]",pass
same,incubation result 10^5 B. stear.,"[2]; trailer loc. 12-Floor surface, in closed folder, […]",pass
same,incubation result 10^5 B. stear.,"[2]; trailer loc. 13-Mattress, under box spring, […]",pass
same,incubation result 10^5 B. stear.,"[2]; trailer loc. 14-Hall closet, closed, […]",pass
same,incubation result 10^5 B. stear.,"[2]; trailer loc. 15-Medicine cabinet, closed, […]",pass
same,incubation result 10^5 B. stear.,"[2]; trailer loc. 16-Light fixture, secured globe, […]",pass
same,incubation result 10^5 B. stear.,"[2]; trailer loc. 17-Central AC inlet, behind filter, […]",pass
same,incubation result 10^5 B. stear.,"[2]; trailer loc. 18-Window AC, behind filter, […]",pass
same,incubation result 10^5 B. stear.,"[2]; trailer loc. 19-Under newspapers, […]",pass
same,sites at which 3 of 4 strips were killed,[3],10%
same,sites at which all four test strips were killed,[3],90%
same,sites at which both B. subtilis 10^8 strips produced no vegetative cells during incubation,[3],16 sites
same,sites at which only one 10^8 strip survived,"[3]; trailer fumigation, 20 sites, 48 hours",four
